Laboratory results: PubChem BioAssay AID1963576 (National Center for Advancing Translational Sciences (NCATS), 2024)
The whole screen tested about 46,000 compounds, of which about 60 (0.1%) were called active. Not shown: some 3% with an inconclusive outcome. Calls follow the shape of the dose curve; as a rule, active = well fitted inhibition curve with a large enough effect; inconclusive = small, poorly fitted or top-dose-only effect; inactive = no such curve, though single readings can be large or run the other way. Some of the results follow.

Experiment: Primary qHTS assay for Inhibitors of ovarian cancer metastasis using an organotypic tumor microenvironment (TME) model. Also: nearly all actives have a fitted effect of over 65% in size.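 As to activity change, negative = inhibition: plate controls were DMSO wells for no effect and tomatine positive control wells for full effect.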
Settings: SKOV3ip1-GFP adhesion/invasion on 3D omental model, fluorescence; series mostly up to 45.8 µM; activity change, negative = inhibition: at the top concentration
Summary of the method: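 Primary human omental fibroblast/mesothelial 3D culture pre-formed 48 h. SKOV3ip1-GFP cells added with compounds (0.36-46 umol/L), incubated 2 h RT/16 h 37 C, fixed; GFP cells quantified at 488/509 nm.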

Activity change, negative = inhibition, inactive:
CCCCCc1ccc(-c2ccc(Br)cc2)nc1 -3.09%, Cc1ccc(-n2nc(C(=O)N3CCN(c4ccccc4F)CC3)c(=O)n(C)c2=O)cc1 4.57%, CC(=O)N1CCc2c(sc3c2c(=O)n(-c2ccccc2)c(=O)n3CC(=O)Nc2cc(C)cc(C)c2)C1 -6.47%, CCOc1ccc(CCNC(=O)c2c(C)oc3ncn(CC(C)C)c(=O)c23)cc1OCC 6.26%, CCOc1ccc(CNC(=O)CCc2c(C)nn(-c3ccc(N4CCCCC4)nn3)c2C)cc1 0.811%, Cc1cc(Br)ccc1NC(=O)CSc1c2c(nc3ccccc13)CCC2 1.19%, CCc1ccc(NC(=O)CSc2nc(C)c(C(=O)Nc3ccccc3)c(-c3ccc(OC)c(OC)c3)c2C#N)cc1 -0.928%, O=C(OCc1cc(=O)n2nc(-c3cccs3)sc2n1)c1ccccc1Cl -4.78%, COc1ccc(NC(=O)c2cc3cc(C)ccc3[nH]2)cc1 1.15%, COc1ccccc1N1CCN(c2ccc(=O)n(CC(=O)NCc3ccc(F)cc3)n2)CC1 6.36%, CSc1ccc(CCNC(=O)c2cc(C)nc3c2c(C)nn3-c2cccc(F)c2)cc1 1.23%, Cc1c(C(=O)N2CCCCCC2)c(S(=O)(=O)NCc2ccccc2)c(C)n1C 7.1%, CC(=O)Nc1ccccc1-c1nc2ccccc2n(CC(=O)Nc2cccc(C)c2C)c1=O 4.28%, O=C(Nc1ccc(F)c(Cl)c1)Nc1c[nH]c(=O)[nH]c1=O -4.14%, O=C(CSc1nc(=O)n(CCN2CCOCC2)c2c1CCC2)Nc1ccc(Cl)c(Cl)c1 -8.15%, O=C(Nc1ccc(OC(F)(F)F)cc1)c1sccc1NCc1ccnc2ccccc12 1.43%, Cc1cc2c(cc1S(=O)(=O)Nc1cccc(Cl)c1C)n(C)c(=O)c(=O)n2C 3.05%, CCOc1ccc(CC(=O)Nc2c(C(=O)c3ccccc3)oc3ccc(Cl)cc23)cc1OCC 27.2%, COc1ccc(N2CCN(S(=O)(=O)c3ccc(-c4coc(C)n4)cc3)CC2)cc1 -3.58%, CC(=O)N1c2ccc(S(=O)(=O)Nc3ccc(C)c(Cl)c3)cc2CC1C (stereo not given) -0.794%, Cc1cccc(CSc2nc3c([nH]c4ccccc43)c(=O)n2C)c1 4.98%, CCCCC(CC)CNC(=O)Cc1ccc(-n2c(=O)[nH]c3ccccc3c2=O)cc1 (stereo not given) -3.93%, CCCCC12CN3CC(C)(CN(C1)C3c1c[nH]c3ccccc13)C2=O (stereo not given) -7.84%, Cc1ccc(NC(=O)C(CC(C)C)N2Cc3ccccc3C2=O)cc1F (stereo not given) 13.2%, CCc1cc2c(cc3c(=O)n(CCCC(=O)NCc4cccc(Br)c4)ncn32)s1 -4.57%, Cc1cc(Nc2ccc(F)cc2F)nc(-n2nc(C)cc2C)n1 -7.56%, COc1cc2c(cc1OC)n(CC(=O)c1cc(C)ccc1C)c(=O)n1nc(CCn3nc(C)cc3C)nc21 -14.6%, CC1=C(C(=O)Nc2cccnc2)C(c2ccc(C)cc2)n2nc(SCc3ccccc3F)nc2N1 (stereo not given) 6.28%, CN(C)c1ccc(NC(=O)Cn2c(SCc3ccc(F)cc3)nc3ccncc32)cc1 8.2%, Cc1ccccc1OCC(=O)Nc1ccc(S(=O)(=O)N(Cc2ccccc2)c2ccccc2)cc1 -16.3%, COC(=O)c1ccc(NC(=O)c2cc(S(=O)(=O)N3CCOCC3)cn2C)cc1 18.4%, CC(=O)Nc1ccc(NS(=O)(=O)c2c(C(=O)N3CCCCCC3)c(C)n(C)c2C)cc1 0.296%, Cc1ccc(-n2ncc(C(=O)NCc3ccc4c(c3)OCO4)c2C2CCN(C(=O)OC(C)(C)C)CC2)c(C)c1 -0.567%, Cc1ccc(OCCSc2nnc(-c3cccs3)o2)cc1 12.7%, Cc1oc2cc3oc(=O)c(CCC(=O)NCCc4ccccc4F)c(C)c3cc2c1C -13.2%, COc1ccc(Cn2c(=O)c3oc4ccccc4c3n(CC(=O)Nc3c(C)cccc3C)c2=O)cc1 -4.55%, Cc1ccc(C(=O)COC(=O)CCC(=O)Nc2ccc(Oc3ccccc3)cc2)cc1 1.92%, COc1ccc(NC(=O)Nc2nnc(N3CCCC3)s2)cc1 2.91%, CN1CCN(C(=O)c2cnn(-c3ccc(F)cc3F)c2C2CCN(C(=O)OC(C)(C)C)CC2)CC1 8.19%, Cc1ccc2c(c1)c1c(c(=O)n(-c3ccccc3)c(=O)n1Cc1ccccc1C)n2C -4.59%, Cc1ccc(CNS(=O)(=O)c2cnc(N)nc2)cc1 10.8%, COc1ccc(Cn2ccc3nc(C)c(C(=O)NCc4ccc(SC)cc4)cc3c2=O)cc1 6.3%, Oc1ccc(-c2nc3ccc(Cl)cn3c2Nc2ccc(Cl)cc2)cc1 -7.04%, O=C(c1cc2c(Cl)nc3ccccc3c2s1)N1CCCCC1 37.8%, CCc1ccc2ncc3c(-c4ccc(C)cc4)nn(CC(=O)NCc4ccccc4)c3c2c1 1.32%, COc1ccc(CNC(=O)CSc2nnc(C)c3c(C)n(-c4ccccc4)nc23)c(OC)c1 0.487%, CC(C)CCNC(=O)Cn1nc(N2CCN(c3ccccc3)CC2)ccc1=O 7.33%, Cc1ccccc1Cn1c2ccccc2c2cnn(CC(=O)NC3CCCCCC3)c(=O)c21 1.5%, COc1ccc(Br)cc1Cn1nnc(C(=O)Nc2cccc(SC)c2)c1N 9.54%, CCOC(=O)c1sc2ncn(CC(=O)Nc3ccc(OC)c(Cl)c3)c(=O)c2c1C 0.395%, COc1ccc(S(=O)(=O)NCc2nc(-c3ccccc3)no2)cc1 6.57%, CSc1cccc(NC(=O)c2cc3c(COC(C)=O)cnc(C)c3oc2=O)c1 27.5%, COc1cc(CNC(=O)c2cc3n(n2)CCCN(Cc2cccc(F)c2)C3=O)cc(OC)c1OC 9.59%, CC(=O)c1cccc(NC(=O)CSc2ncc3c(n2)-c2cc(Cl)ccc2N(Cc2ccccc2)S3(=O)=O)c1 3.28%, CN(CC(=O)Nc1cccc(F)c1)S(=O)(=O)c1ccc2c(c1)n(C)c(=O)c(=O)n2C 6.82%, Cc1ccc(NC(=O)c2ccc(CN3CC(=O)N4CCCCC4C3=O)cc2)c(Cl)c1 (stereo not given) -11.5%, COc1ccc(-c2ccc(=O)n(CC(=O)Nc3cc(OC)ccc3OC)n2)cc1 -10.8%, Cc1cccc(-n2ncc3c(NNC(=O)c4ccccc4Cl)ncnc32)c1 -2.11%, CCOC(=O)c1cccc(NC(=O)Nc2c(C)n(C)n(-c3ccccc3)c2=O)c1 -6.11%, O=c1[nH]c(C2CCCN(S(=O)(=O)c3ccccc3)C2)nc2c1nnn2Cc1ccccc1Br (stereo not given) 2.23%, COc1cc(NC(=O)Cc2noc3ccccc23)cc(OC)c1OC 9.76%, CCOC(=O)c1ccc(NC(=O)CC(C)n2nc(C)cc2C)cc1 (stereo not given) -9.58%, CCS(=O)(=O)NCCc1csc2nc(-c3ccc(OC)cc3)nn12 1.03%, COc1ccc(OC)c(S(=O)(=O)NCCS(=O)(=O)N2CCN(c3ccccc3F)CC2)c1 -20%, CCc1cnc2c(c1SCc1cc(OC)cc(OC)c1)c(=O)n(C)c(=O)n2C -5.06%, CCCCN(CC)CCCNC(=O)c1cn(C)c(=O)c2c1c1ccccc1n2C -10%, Cc1nn(CCC(=O)Nc2cccc(C#N)c2)c(C)c1S(=O)(=O)N1CCCCC1 1.68%, Cc1cccc(C)c1NC(=O)Cn1cc(C(=O)C2CC2)c2ccccc21 6.39%, COc1cccc(C(=O)Nc2nnc(S(=O)(=O)N3CCCc4ccccc43)s2)c1 5.11%, O=S(=O)(NCC(c1ccccc1)N1CCc2ccccc21)c1ccc(Cl)cc1 (stereo not given) -7.7%, C=CCc1ccccc1OCCSc1nc(-c2ccccc2F)nc2cc(=O)[nH]n12 4.14%, CSc1ncc(C(=O)NCc2cccc(C)c2)c(-c2ccccc2)n1 -0.148%

outcome, inactive:
COc1cccc(CSc2nc3n(n2)C(c2ccc(C(=O)O)cc2)C(C(=O)Nc2ccccc2)=C(C)N3)c1 (stereo not given), CCOc1ccccc1NC(=O)CSc1nc2c(oc3ccccc32)c(=O)n1-c1ccc(F)cc1, CC(C)(C)C(=O)CSc1nc2ccsc2c(=O)n1Cc1ccccc1Cl, CSc1ccccc1-c1nnc(NC(=O)c2ccc3c(c2)OCCO3)o1, Cc1ccc2nc(SCc3nc(-c4ccc(Cl)cc4)no3)[nH]c2c1, CCOC(=O)c1cc(-c2ccccc2)n(CCC(=O)Nc2ccccc2CC)c1C, Cc1cc(C)cc(N2C(=O)CSC23C(=O)N(Cc2c(F)cccc2Cl)c2ccccc23)c1 (stereo not given), CNS(=O)(=O)c1cn(CC(=O)N2CCN(c3ccc(C(C)=O)cc3)CC2)cc1S(=O)(=O)NC, Cc1c(CCNC(=O)c2ccc(C(C)(C)C)cc2)sc2nc(-c3ccc(F)cc3)nn12, COc1ccc(CCNC(=O)CSc2cn(CCNC(=O)c3c(F)cccc3F)c3ccccc23)cc1OC, Cc1cc(C)cc(N(CC(=O)NCCc2ccc(Cl)cc2)S(=O)(=O)c2c(C)noc2C)c1, CCC(=O)N1c2ccccc2CC1C(=O)NCc1ccc(CC)cc1 (stereo not given), Cc1ccc(NC(=O)c2c(C)oc3ccc(O)c(CN4CCOCC4)c23)cc1, Cc1ccc2c(=O)cc(C(=O)N(Cc3ccc(C(C)(C)C)cc3)C3CCS(=O)(=O)C3)oc2c1 (stereo not given), Cc1ccccc1NC(=O)Cn1nc(-c2ccccc2)nc(Cc2ccccc2)c1=O, COc1ccc(-c2nc3sc(CCNC(=O)C(=O)Nc4ccc(OC)c(OC)c4)c(C)n3n2)cc1, O=C(CSc1nc2ccccc2n1Cc1cccc(F)c1)NCc1ccccc1, O=C(CC(c1cccs1)N1Cc2ccccc2C1=O)Nc1ccc(F)cc1 (stereo not given), CN1CCN(C(=O)c2ccc3c(c2)N(Cc2ccc(C(F)(F)F)cc2)C(=O)c2ccccc2S3)CC1, COc1ccc(OC)c(C2C(C(=O)Nc3ccc(C)cc3)=C(C)Nc3nnnn32)c1 (stereo not given), Cc1ccc(C)c(Nc2nn3c(=O)c4ccc(C(=O)NCc5ccccc5)cc4nc3s2)c1, O=C(CN1C(=O)COc2ccc(S(=O)(=O)N3CCCCCC3)cc21)N1CCN(c2ccc(Cl)cc2)CC1, Cc1ccc(C)c(CN2C(=O)c3ccccc3S(=O)c3ccc(C(=O)N4CCCCC4)cc32)c1 (stereo not given)
